# Source: PubChem BioAssay AID1030 (National Center for Advancing Translational Sciences (NCATS), 2008)
# Among all 220,000 compounds or so, about 16,000 (7.3%) were called active. Inconclusive results, whose numbers are uncertain, are shown with a selection of clear calls. The call rests on the fitted dose curve; in most records, active means well fitted inhibition curve with a large enough effect (not every such curve was filed as active); inconclusive means small, poorly fitted or top-dose-only effect, or another doubt; inactive means no such curve, though single readings can be large or run the other way. Potencies of inconclusive entries are left out as doubtful fits.
# Target: Aldehyde dehydrogenase 1A1 (Homo sapiens) (UniProt P00352)
# Assay: qHTS Assay for Inhibitors of Aldehyde Dehydrogenase 1 (ALDH1A1);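 on activity, negative = inhibition: plate controls were no enzyme wells and a reference inhibitor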
# Conditions: Purified ALDH1A1, NADH fluorescence, propionaldehyde substrate; series mostly up to 75.3 µM
# Potency means the concentration at half of the fitted maximal effect; tags describe the fitted curve by direction and shape.
# UniProt P00352, sequence (P00352 whole entry, looked up): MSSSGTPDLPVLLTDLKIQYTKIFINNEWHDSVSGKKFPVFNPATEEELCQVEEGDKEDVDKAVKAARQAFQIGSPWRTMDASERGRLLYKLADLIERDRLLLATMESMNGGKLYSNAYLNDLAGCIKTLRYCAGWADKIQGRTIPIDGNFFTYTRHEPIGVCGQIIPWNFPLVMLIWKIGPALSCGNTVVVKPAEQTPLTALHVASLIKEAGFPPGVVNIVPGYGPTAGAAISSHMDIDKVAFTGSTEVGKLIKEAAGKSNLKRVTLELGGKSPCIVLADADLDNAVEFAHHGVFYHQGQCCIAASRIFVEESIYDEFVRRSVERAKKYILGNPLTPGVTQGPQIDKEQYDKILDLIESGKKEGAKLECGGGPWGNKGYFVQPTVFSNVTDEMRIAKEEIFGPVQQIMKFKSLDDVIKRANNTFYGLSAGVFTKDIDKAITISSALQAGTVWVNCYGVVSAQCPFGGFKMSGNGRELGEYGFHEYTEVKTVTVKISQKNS
Structure (SMILES),Potency,"activity, negative = inhibition"
COc1ccc(NC(=O)c2cc(CC(C)C)on2)cc1OC,"inconclusive [inhibitor, partial curve]",
CC(=O)Nc1ccc(S(=O)(=O)NC2(C(F)(F)F)C(=O)Nc3c2c(=O)n(C)c(=O)n3C)cc1 (stereo not given),"inconclusive [inhibitor, single point]",
Cc1ccc(-c2[nH]c3ccccc3c2SCCNC(=O)c2cc3ccccc3oc2=O)cc1,inactive,
CCOC(=O)c1cnc(SCC(=O)Nc2cccc(OC)c2)nc1N,"inconclusive [inhibitor, single point]",
Cc1ccc(S(=O)(=O)N2CCN(Cc3nc4sc(C)c(C)c4c(=O)[nH]3)CC2)cc1,inactive,
Cc1onc(-c2ccccc2Cl)c1C(=O)NC(=S)Nc1ccccc1C(N)=O,"inconclusive [inhibitor, partial curve]",
O=S(c1ccc2ccccc2c1)c1cnns1 (stereo not given),"inconclusive [inhibitor, single point]",
CN(C)CCCNC(=S)NCCNc1nc2cc3c(cc2cc1C#N)OCO3,"inconclusive [inhibitor, single point]",
Cn1c(SCC(=O)NC2CCCC2)nnc1-c1ccc(S(=O)(=O)N2CCOCC2)cc1,"inconclusive [inhibitor, single point]",
Cc1ncsc1CCC(=O)N1CCCC(C(=O)c2ccc3c(c2)OCO3)C1 (stereo not given),"inconclusive [inhibitor, single point]",
Cc1nn(Cc2ccccc2)c(Cl)c1/C=C1\NC(=S)NC1=O,"inconclusive [inhibitor, single point]",
O=C(CSc1ccc(F)cc1)Nc1ccc(Br)cc1,active: 20 µM,
COc1cccc(Cn2c(=O)c(-c3cccc(F)c3)nc3cncnc32)c1,inactive,
O=S(=O)(Nc1ccc(-c2nc3cccnc3s2)cc1)c1ccc(Cl)s1,"inconclusive [inhibitor, partial curve]",
CCc1cccc(NC(=O)CS(=O)Cc2nc(-c3ccc(C)cc3)oc2C)c1 (stereo not given),"inconclusive [inhibitor, single point]",
CN(C)c1nc(=NCc2ccco2)ss1,active: 10 µM,
COc1ccc(/C=N/NC(=O)c2cc(C)n(-c3ccccc3)c2C)cc1OC,"inconclusive [inhibitor, single point]",
O=C(N/N=C/c1ccc(Cl)cc1Cl)C(=O)NC1CC1,inactive,
O=C1c2ccc3c4c(ccc(c24)C(=O)N1c1ccc2ccccc2c1)CC3,"inconclusive [inhibitor, partial curve]",
Cc1nc2ccc(NC(=O)CCS(=O)(=O)c3ccc(Cl)cc3)cc2s1,"inconclusive [inhibitor, partial curve]",
CCCSc1ccc(-c2nn(-c3ccccc3)cc2/C=C(/C#N)C(=O)N2CCOCC2)cc1,"inconclusive [inhibitor, single point]",
COc1cc(/C=C2\N=C3CCCCCN3C2=O)ccc1O,"inconclusive [inhibitor, single point]",
COc1cccc(-n2nnnc2SCC(=O)Nc2nc3c(s2)CCCC3)c1,"inconclusive [inhibitor, partial curve, poor fit]",
COc1cc(-c2nn3c(-c4cccnc4)nnc3s2)cc(OC)c1OC,"inconclusive [inhibitor, single point]",

Structure (SMILES),Potency,"activity, negative = inhibition"
O=c1c(-c2ccc(F)cc2)nc2cnc(N3CCOCC3)nc2n1Cc1ccc(F)cc1,"inconclusive [inhibitor, full curve, poor fit]",
CC1=C(C(N)=O)C(c2ccccc2F)NC(=O)N1 (stereo not given),inactive,
Cc1ccc(O)c(C(=O)c2cc(C#N)c(=O)n(CC3CCCO3)c2)c1 (stereo not given),"inconclusive [inhibitor, single point]",
CCOC(=O)C1CCN(C(=O)CC(C)c2ccccc2)CC1 (stereo not given),"inconclusive [inhibitor, partial curve]",
N#CC1=C(N)n2c(s/c(=C\c3cccs3)c2=O)=C(C#N)C1c1cccs1 (stereo not given),"inconclusive [inhibitor, single point]",
O=C(NCc1ccc(F)cc1)c1ccc(N2CCc3ccccc32)c([N+](=O)[O-])c1,"inconclusive [inhibitor, partial curve]",
CC(C)CNS(=O)(=O)c1ccc(CCC(=O)NCc2ccco2)cc1,active: 2 µM,
Cc1cccc(-c2nnc3n2N=C(c2ccc(Br)cc2)CS3)c1,inactive,
COC(=O)c1ccc(CSc2nnc(-c3c[nH]c4ccccc34)n2C)o1,"inconclusive [inhibitor, single point]",
CCOC(=O)C1(S(=O)(=O)c2ccc(Cl)cc2)CCN(Cc2ccccc2)CC1,"inconclusive [inhibitor, single point]",
CCOC(=O)Cc1c(C)nc2c(-c3cccc(Br)c3)cnn2c1C,"inconclusive [inhibitor, single point]",
CCOC(=O)c1cc2c(=O)n3ccccc3nc2n(Cc2ccco2)c1=NC(=O)c1ccc(OC)cc1OC,"inconclusive [inhibitor, partial curve]",
N#Cc1nc(-c2ccc(Cl)cc2)oc1NCCc1ccccn1,"inconclusive [inhibitor, single point]",
Fc1ccc(NC(=S)Nc2ccc(F)c(Cl)c2)cc1Cl,"inconclusive [inhibitor, single point]",
Cc1ccc(NC(=O)c2ccco2)c([N+](=O)[O-])c1,"inconclusive [inhibitor, partial curve]",
Cc1ccc(C(=O)n2cnnc2N)cc1,inactive,
O=C(Nc1ccccc1Br)C1CCN(C(=O)Cc2ccccc2)CC1,inactive,
CCOC(=O)/C(C#N)=C/c1cc2ccc(C)cc2nc1Cl,"inconclusive [inhibitor, partial curve]",
COc1cnc(-c2ccccn2)nc1Sc1ccccc1,active: 10 µM,
N#C/C(=C\c1cc(Cl)ccc1O)C(=O)NC1CCCCC1,inactive,
O=C(Nc1ccc(S(=O)(=O)N2CCc3ccccc3C2)cc1)c1ccccc1,inactive,
CCCn1c(=N)c(S(=O)(=O)c2ccccc2)cc2c(=O)n3ccccc3nc21,"inconclusive [inhibitor, partial curve]",
Cc1nn(CCC(=O)NNC(=S)Nc2ccc(Cl)cc2)c(C)c1[N+](=O)[O-],active: 22.4 µM,
CC(=O)C1=C(C)NC(SCc2cccc3ccccc23)=C(C#N)C1c1ccco1 (stereo not given),"inconclusive [inhibitor, partial curve]",

Structure (SMILES),Potency,"activity, negative = inhibition"
C=CCSc1nnc(CC(OC)OC)n1-c1ccccc1,"inconclusive [inhibitor, single point]",
Cc1nccn1-c1cc(C(C)(C)C)nc2c(-c3ccccc3)cnn12,inactive,
CCOC(=O)c1cnn(-c2nc(SC)nc3sc4c(c23)CCC4)c1N,"inconclusive [inhibitor, single point]",
O=C(CSc1nnnn1-c1ccc2c(c1)CCC2)NCc1cccs1,"inconclusive [inhibitor, single point]",
Cc1ccc(S(=O)(=O)N2CCCCC2C(=O)N2CCN(C)CC2)cc1 (stereo not given),"inconclusive [inhibitor, single point]",
CC(C)(C)NC(=O)NC(=O)CN1CCCCCCC1,"inconclusive [inhibitor, single point]",
Clc1ccccc1Oc1cnc2ccccc2n1,"inconclusive [inhibitor, single point]",
CC(C)CCSc1nc2[nH]ncc2c(=O)[nH]1,"inconclusive [inhibitor, single point]",
Cc1cc(Cc2cc(C)c(N)cc2C)c(C)cc1N,active: 22.4 µM,
Cc1cccc(NC(=O)CSc2nc3ccc(NC(=O)CSc4nnnn4-c4ccccc4)cc3s2)c1C,"inconclusive [inhibitor, single point]",
CC(=O)Nc1cccc(C2=CC(c3ccco3)n3ncnc3N2)c1 (stereo not given),"inconclusive [inhibitor, partial curve]",
COc1ccccc1N1C(=S)N=C(Nc2c(C)cccc2C)C12CCCC2,inactive,
N/C(=N\O)c1cn([C@@H]2O[C@@H](CO)[C@H](O)[C@@H]2O)c2ncnc(NO)c12,,inactive: -8.62% [at 13.5 µM]
COc1ccc(C(CNC(=O)c2ccc(S(=O)(=O)N3CCOCC3)cc2)N2CCCCC2)cc1 (stereo not given),"inconclusive [inhibitor, partial curve]",
CC(COc1ccccc1)N1CCC(CO)(Cc2ccccc2)CC1 (stereo not given),inactive,
COc1ccc(CNc2nc3ccccc3n2Cc2ccc(Cl)cc2)cc1OC,inactive,
N#Cc1nc(-c2ccco2)oc1NCCCN1CCOCC1,"inconclusive [inhibitor, partial curve]",
Cn1ncc2c(Nc3ccccc3Cl)nc(Nc3ccccc3Cl)nc21,"inconclusive [inhibitor, single point]",
COc1cccc(Cn2c(=O)c(-c3ccc(F)cc3)nc3cnc(N4CCOCC4)nc32)c1,"inconclusive [inhibitor, partial curve]",
CCC1CCCCN1CCCNC(=O)c1ccc(N2CCOCC2)c(NS(=O)(=O)c2ccc(OC)cc2)c1 (stereo not given),"inconclusive [inhibitor, single point]",
CCOC(=O)C1=C(C)C(c2ccccc2)NC(=S)N1 (stereo not given),active: 2.51 µM,
CCOc1ccc(C(=O)NC(=S)Nc2ccc(N3CCC(C)CC3)cc2)cc1[N+](=O)[O-],active: 7.94 µM,
